The campaign covered roughly 48,000 compounds. About 120 (0.25%) were called active. Another 4% or so got no clear call; they are omitted. Calls come from the whole dose curve; as a rule, active = well fitted activation curve with a large enough effect; inconclusive = small, poorly fitted or top-dose-only effect, or another doubt; inactive = no such curve, though single readings can be large or run the other way. Some of the results follow.
experiment: Primary qHTS for Identification of Small Molecule Activators of Huntingtin-Antisense Promoter Activity; conditions: HEK293 HTT-AS promoter firefly luciferase reporter, 24 h; series mostly up to 57.5 µM; activity change, positive = activation: at the top concentration; note: nearly all actives have a fitted effect of over 55% in size
Procedure, shortened: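 Firefly luciferase readout (Dual-Glo, 10 min RT) after 24 h, 37 °C compound exposure (final up to 57.5 uM) of HEK293 reporter cells cultured 24 h beforehand; PTC124 at 50 uM final as control inhibitor; activity scaled vehicle 0%, zero RLU -100%.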

Activity change, positive = activation, inactive:
Cc1ccc(CNC(=O)CCCn2c(=O)c3ccccc3n(CC(=O)Nc3ccc(C)cc3)c2=O)cc1 -6.2%, CCOC(=O)c1c(NC(=O)COc2ccc(Cl)cc2C)sc2c1CCCCC2 -12%, Cc1ccc(CNC(=O)CS(=O)(=O)c2cccc3nsnc23)cc1 -12%, COc1cccc(NC(=O)Cn2c(=O)n(CCC(=O)NCCc3ccc(Cl)cc3)c(=O)c3ccccc32)c1 -7.97%, CCOc1cc(-c2ccc(OC(=O)c3ccccc3Cl)c(OC)c2)cc(=O)c2c(C)oc(C)c12 -14.2%, Cc1cccc(C)c1NC(=O)c1ccc2c(c1)nnn2C1CCCC1 -19.8%, COc1ccc(-c2nn3c(=O)cc(CN4CCN(C(=O)/C=C/c5ccccc5)CC4)nc3s2)cc1 -1.74%, COc1ccc(C2CC(=O)Nc3c2c(=O)[nH]c2nc4ccccc4n32)cc1 (configuration not stated) -19.1%, CCn1cc(C(=O)Nc2cccc(Cl)c2)c2cc(OC)c(OC)cc2c1=O -27.8%, Cc1cc(C)cc(NC(=O)CSc2nc3c(c(=O)[nH]2)CN(Cc2ccc(F)cc2)CC3)c1 -7.95%, COc1ccccc1N1CCN(C(=O)Cn2c(=O)n3nc(-c4cccc(F)c4)nc3c3ccccc32)CC1 -2.61%, CCCCN(CC)CCNC(=O)C1CCN(S(=O)(=O)c2cccc3nsnc23)CC1 -0.396%, CCNC(=O)c1ccc(NC(=O)N2CCCCc3ccccc32)cc1 -12.9%, COc1cc(NC(=O)CN2CCN(c3ccc(F)cc3)CC2)cc(OC)c1 -12%, Cc1nn(CC(=O)NC2CCC(C)CC2)c(=O)c2c1sc1ccccc12 (configuration not stated) 18%, CCn1cc2nc(SCC(=O)Nc3cc(OC)cc(OC)c3)n(Cc3ccc(Cl)cc3)c(=O)c2n1 -20.7%, Cc1ccc(NC(=O)CCc2c(C)nc3c(-c4ccc(F)cc4)c(C)nn3c2C)cc1F -1.2%, Cc1ccc2oc(-c3ccc(NC(=O)CCC(=O)O)cc3)nc2c1 25.4%, Cc1cc(C)c(Nc2ncnc3c2cnn3C)c(C)c1 0%, O=C(/C=C/c1ccccc1Cl)N1CCC(c2nc3ccccc3o2)CC1 -18.6%, CCOc1ccc(NC(=O)c2sc3nc4n(c(=O)c3c2C)CCC4)cc1 1.39%, COC(=O)N1CCCc2cc(S(=O)(=O)NCc3ccccc3)ccc21 -20.5%, COc1ccc(OC(=O)c2nc(SCc3ccccc3F)ncc2Cl)cc1 -3.78%, Cc1ccc(NC(=O)Cn2c(=O)n(Cc3ccco3)c(=O)c3oc4ccccc4c32)cc1C -2.31%, CCC(C)NC(=O)c1nn(-c2ccc(C)cc2)nc1CO (configuration not stated) -0.296%, Cc1cccc(CN2C(=O)c3ccccc3Sc3ccc(C(=O)NC4CCCCC4)cc32)c1 -11.4%, CC(C)(C)c1ccc(C(=O)NCC(c2cccnc2)N2CCc3ccccc3C2)cc1 (configuration not stated) -81.4%, Cc1cccc(CNC(=O)C2CCC(CNS(=O)(=O)c3ccc4c(c3)CCCC(=O)N4)CC2)c1 (configuration not stated) -22.1%, O=C(Nc1ccc2nc(SCC(=O)N3CCOCC3)sc2c1)c1cccc(Br)c1 -34.2%, CC[C@@]1(c2ccccc2)NC(=O)N(C)C1=O -6.22%, CCc1nn(CC(=O)N2CCN(c3ccc(OC)cc3)CC2)c(=O)c2cc3sccc3n12 -15.5%, CC(CCc1ccccc1)NC(=O)Cn1ncc2c3ccccc3n(Cc3ccccc3F)c2c1=O (configuration not stated) 22.7%, CCC(=O)C1=C(c2ccc(F)cc2)N(C(=O)CC)n2c(nnc2-c2ccc(OC)cc2)S1 -13.9%, O=C(CSc1nccn1-c1cccc(Cl)c1)Nc1ccc2c(c1)OCO2 6.86%, COc1ccc(-c2cnc(C)o2)cc1S(=O)(=O)Nc1ccc(NC(C)=O)cc1 2.12%, Cn1c(=O)oc2cc(S(=O)(=O)CCC(=O)N3CCN(c4ccccc4F)CC3)ccc21 -13.6% [at 11.5 µM, percent change from vehicle, -100% = no light], O=C(CCn1c(=O)c2cccn2c2cccnc21)N1CCN(c2ccccc2)CC1 -10.5%, CCn1c(SCC(=O)Nc2ccccc2C(=O)OC)nc2ccsc2c1=O -13.7%, Cc1ccc(-c2cc(C(=O)Oc3ccc(C#N)cc3)no2)cc1 12.3%, CCC(=O)NNc1ncnc2c1cnn2-c1ccc(C)c(Cl)c1 -4.95%, O=C(CSc1nc(=O)[nH]c2c1CCC2)NCc1ccccc1Cl -1.44%, CCN(Cc1ccccc1)C(=O)Cn1c(=O)n(-c2ccccc2)c(=O)c2c1c1cc(C)ccc1n2C -14.6%, CCc1ccc(CSc2nc(-c3ccccc3F)nc3c2Cc2c(CO)cnc(C)c2O3)cc1 -13.4%, CCSc1ccccc1C(=O)N1CCN(c2nc3ccccc3s2)CC1 -42.1%, Cc1ccc(C)c(NC(=O)CSc2nc3ccccc3nc2N2CCOCC2)c1 23.9%, CC(C)(C)OC(=O)N1CCC(c2c(C(=O)N3CCCCC3)cnn2-c2ccc(F)cc2)CC1 -11.1%, COc1cccc(NC(=O)c2oc3ccc(S(=O)(=O)N(C)C4CCCCC4)cc3c2C)c1 -34.7%, COC(=O)c1ccc(NC(=O)c2cnn(-c3ccc(Cl)cc3)c2C2CCN(C(=O)OC(C)(C)C)CC2)cc1 -27.2%, COc1ccccc1C(=O)Nc1cccc(OCc2cc(=O)n3ccccc3n2)c1 21.6%, Cc1cc(C)c(NC(=O)c2cc(C)nc3c2c(C)nn3-c2cccc(F)c2)c(C)c1 -9.8%, Cc1cc2oc(C(=O)N(Cc3ccc(Cl)cc3)Cc3ccco3)c(C)c2cc1Cl -19.1%, CCN(CC)C(=O)c1c(NC(=O)c2ccccc2F)sc2c1CCC(C(C)(C)C)C2 (configuration not stated) -24.9%, CCc1ccc(-c2nn(-c3ccc(OC)cc3)c3c2cnc2ccc(OC)cc23)cc1 -12.2%, O=C(CSc1nccn1Cc1ccc2c(c1)OCO2)Nc1ccccc1F -11.3%, CCCn1c(=O)sc2cc(NC(=O)c3ccccc3Cl)ccc21 3.64%, COc1cc(NC(=O)CCn2nc(C)cc2C)cc(OC)c1OC -4.76%, CCC1CCCCN1CCCNC(=O)c1cn(C)c2ccc(S(=O)(=O)N(C)C3CCCCC3)cc2c1=O (configuration not stated) -13.4%, COc1cccc(N2CCN(C(=O)c3cccn3-c3nnc(N4CCCCC4)s3)CC2)c1 -6.59%, O=C1CC(c2ccc(Cl)cc2)CC(=O)N1 -3.56%, Cc1cc(Nc2ccccc2C)c2cccc(C)c2n1 -19.2%, COCCCN1CCC(NC(=O)c2cc(Cl)c(N)c3c2OCC3)CC1 -0.803%, CCC(C)n1c(SCC(=O)Nc2ccccc2C(=O)OC)nc2ccsc2c1=O (configuration not stated) -37.5%
